Laboratory results reported in patent US4461724A, “Peptide compounds, a process for manufacturing them, pharmaceutical compositions containing them, and methods for treating ulcer and thrombus with them” (Nippon Zoki Pharmaceutical Co., Ltd., priority 1981, dated 1984).
Part of at least one peptide drawing is inferred or uncertain, most often the ends. Square brackets hold non-standard residues; d marks the D form. Peptide text beside a SMILES is read from it. Sar = CNCC(=O)O

Columns and labels:
Format in all cases: in vivo, Wister strain male rats
[1] = test system: Collagen Induced Hemagglutination; assay: Antithrombotic effect (I): collagen induced hemagglutination in plasma of dosed rats; settings: collagen as coagulant; for Transmittance: mean ± S.E., control 52.5 ± 7.1
Experimental: (§1) Groups each consisting of 10 Wister strain male rats (120-160 g) were administered with the drug to be tested through the tail vein, and 5 minutes later, blood was taken under etherized conditions at a ratio to 3.8% aqueous sodium citrate solution of 1/10. This was centrifugally separated into platelet rich plasma (PRP) and platelet poor plasma (PPP). Using ADP or collagen as the coagulant, the reaction was effected at 37° C. The transmittance of the plasma with the coagulant and drug to be tested was measured using PRP and PPP as the standards, compared with the control, and the percent inhibition was calculated. As the comparative drug, ticlopidine was orally administered.

[2] = test system: histamine-induced ulcer in rats; assay: Histamine-induced ulcer inhibiting effect (Table 1); settings: 20 mg/kg i.v., histamine dihydrochloride 300 mg/kg i.p., 4 hours; for Ulcer coefficient (total surface area of ulcer lesion): mean ± S.E., control 28.4 ± 3.2
Experimental: Groups each consisting of 10 Wister strain male rats (120-130 g) were starved for 24 hours, and the drug to be tested were intravenously administered (i.v.). Immediately thereafter, according to the method by Bucher et al. [Bucher, F. et al., Beitr. Path. Anat. 81, 391 (1928)], 300 mg/kg of histamine dihydrochloride was administered intraperitoneally (i.p.). Four hours later, each animal was decapitated to bleed, and the stomach was removed. 6 ml of physiological saline was infused into the removed stomach, which was then dipped in 10% formalin for 10 minutes. Then, the stomach was incised along the greater curvature. The ulcer appeared on the stomach mucous membrane was observed on a stereoscopic microscope to measure the surface area of the ulcer lesion, and the total area was designated as the ulcer coefficient.

[3] = test system: ADP Induced Hemagglutination; assay: Antithrombotic effect (I): ADP induced hemagglutination in plasma of dosed rats; settings: ADP as coagulant, 10 mg/kg via tail vein, blood taken 5 minutes later; for Transmittance: mean ± S.E., control 62.9 ± 6.3
Experimental: as §1

SMILES	Inhibition rate (%) ([1]; 2.5 mg/kg via tail vein)	Transmittance ([1]; 2.5 mg/kg via tail vein)	Transmittance ([1]; 10.0 mg/kg via tail vein, 10 mg/kg)	Inhibition rate (%) ([1]; 10 mg/kg)	Inhibition rate (%) [2]	Ulcer coefficient (total surface area of ulcer lesion) [2]	Inhibition rate (%) [3]	Transmittance [3]
NCCCC[C@H](NC(=O)[C@H](Cc1c[nH]cn1)NC(=O)[C@H](CO)NC(=O)CN)C(=O)O [Compound 20, Gly-Ser-His-Lys] (H-GSHK-OH)	53.5%	24.4 ± 6.2	16.8 ± 5.4	68.0%	83.8%	4.6 ± 0.8	76.9%	14.5 ± 6.6
C[C@H](N)C(=O)N[C@@H](CO)C(=O)N[C@@H](Cc1c[nH]cn1)C(=O)N[C@@H](CCCCN)C(=O)O [Compound 21, Ala-Ser-His-Lys] (H-ASHK-OH)	–	–	–	–	57.0%	12.2 ± 2.3	61.3%	24.3 ± 3.2
C[C@@H](N)C(=O)N[C@@H](CO)C(=O)N[C@@H](Cc1c[nH]cn1)C(=O)N[C@@H](CCCCN)C(=O)O [Compound 22, D-Ala-Ser-His-Lys] (H-[dA]SHK-OH)	–	–	–	–	51.4%	13.8 ± 2.9	61.5%	24.2 ± 5.3
CC(C)C[C@H](N)C(=O)N[C@@H](CO)C(=O)N[C@@H](Cc1c[nH]cn1)C(=O)N[C@@H](CCCCN)C(=O)O [Compound 23, Leu-Ser-His-Lys] (H-LSHK-OH)	–	–	–	–	52.8%	13.4 ± 3.1	35.8%	40.4 ± 7.8
NCCCC[C@H](NC(=O)[C@H](Cc1c[nH]cn1)NC(=O)[C@H](CO)NC(=O)[C@@H](N)Cc1ccc(O)cc1)C(=O)O [Compound 24, Tyr-Ser-His-Lys] (H-YSHK-OH)	–	–	–	–	–	–	40.4%	37.5 ± 7.1
CNCC(=O)N[C@@H](CO)C(=O)N[C@@H](Cc1c[nH]cn1)C(=O)N[C@@H](CCCCN)C(=O)O [Compound 26, Sar-Ser-His-Lys] (H-[Sar]SHK-OH)	–	–	–	–	61.3%	11.0 ± 1.7	71.7%	17.8 ± 6.8
NCCCC[C@H](NC(=O)[C@H](Cc1c[nH]cn1)NC(=O)[C@H](CO)NC(=O)[C@@H]1CCCN1)C(=O)O [Compound 27, Pro-Ser-His-Lys] (H-PSHK-OH)	–	–	–	–	60.2%	11.3 ± 3.5	61.8%	24.0 ± 11.2
NCCCC[C@H](NC(=O)[C@H](Cc1c[nH]cn1)NC(=O)[C@H](CO)NC(=O)[C@@H](N)Cc1c[nH]c2ccccc12)C(=O)O [Compound 29, Trp-Ser-His-Lys] (H-WSHK-OH)	–	–	–	–	68.0%	9.1 ± 2.5	49.2%	31.5 ± 8.6
